About 14,000 (4.5%) of roughly 310,000 compounds showed an effect of 50% or more. Effects have a minus sign here. Some of the results follow.
molecular target: human ether-à-go-go-related gene (hERG) potassium channel (human, UniProt Q12809); assay: primary screen, population patch clamp on CHO cells stably expressing hERG
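Also: peak tail current of the secondary pulse compared with the same well before compound.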

Sequence of human ether-à-go-go-related gene (hERG) potassium channel (Q12809 whole entry, looked up): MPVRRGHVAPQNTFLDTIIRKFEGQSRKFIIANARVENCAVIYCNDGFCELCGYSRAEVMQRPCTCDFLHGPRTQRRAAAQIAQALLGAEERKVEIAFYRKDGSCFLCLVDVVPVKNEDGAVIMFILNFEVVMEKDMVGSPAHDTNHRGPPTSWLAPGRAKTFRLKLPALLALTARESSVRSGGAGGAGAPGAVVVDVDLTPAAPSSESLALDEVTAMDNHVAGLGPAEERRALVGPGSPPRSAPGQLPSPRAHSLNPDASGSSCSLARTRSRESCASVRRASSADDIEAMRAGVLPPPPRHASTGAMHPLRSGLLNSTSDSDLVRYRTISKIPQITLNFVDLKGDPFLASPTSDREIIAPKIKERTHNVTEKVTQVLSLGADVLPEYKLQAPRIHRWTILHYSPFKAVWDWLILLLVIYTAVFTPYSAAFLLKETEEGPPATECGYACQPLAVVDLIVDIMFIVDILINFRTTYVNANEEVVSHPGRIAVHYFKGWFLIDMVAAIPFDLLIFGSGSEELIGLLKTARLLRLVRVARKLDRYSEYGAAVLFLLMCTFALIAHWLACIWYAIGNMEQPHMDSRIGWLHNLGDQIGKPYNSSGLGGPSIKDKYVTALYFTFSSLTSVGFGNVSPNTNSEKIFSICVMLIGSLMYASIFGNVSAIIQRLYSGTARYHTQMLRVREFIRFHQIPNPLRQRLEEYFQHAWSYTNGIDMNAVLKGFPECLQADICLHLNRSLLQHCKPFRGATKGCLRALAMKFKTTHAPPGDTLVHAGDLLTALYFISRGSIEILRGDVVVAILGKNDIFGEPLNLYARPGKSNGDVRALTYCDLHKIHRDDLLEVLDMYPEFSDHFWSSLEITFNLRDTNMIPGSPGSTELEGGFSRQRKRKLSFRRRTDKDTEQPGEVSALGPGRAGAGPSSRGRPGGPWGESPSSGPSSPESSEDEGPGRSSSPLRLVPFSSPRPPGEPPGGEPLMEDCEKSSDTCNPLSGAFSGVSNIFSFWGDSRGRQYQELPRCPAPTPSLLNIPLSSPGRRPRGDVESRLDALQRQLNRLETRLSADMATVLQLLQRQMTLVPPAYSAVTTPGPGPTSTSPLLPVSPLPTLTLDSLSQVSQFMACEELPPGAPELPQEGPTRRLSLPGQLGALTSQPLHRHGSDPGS

Structure (SMILES) | hERG current change (%, negative = inhibition) at 10uM
Cn1c(N)c(C(=O)Nc2ccc(-c3ccccc3)cc2)sc1=S | 12.2%
CC(C)(C)c1ccc(C(=O)N2CCC(NC(=O)c3ccccc3)CC2)cc1 | -1.48%
COc1ccc(NC(=O)CN2CCC(Cc3ccccc3)CC2)cc1S(=O)(=O)N1CCOCC1 | -25.3%
O=C(CN1CCOCC1)Nc1ncccn1 | 18.1%
O=C(CNC(=O)c1ccccc1)OCC(=O)N1c2ccccc2Sc2ccccc21 | 13.4%
Cc1cc(C)c2c(=O)n(CC(=O)NCCCN3CCN(c4ccccc4F)CC3)sc2n1 | -55.3%
CCN(CC)C(=O)CC(c1ccc2c(c1)OCO2)c1c(O)cc(OC)cc1OC (stereo not drawn) | -2.77%
CSc1nc(C)c(Cc2ccccc2)c(=O)[nH]1 | 30.6%
COc1cccc(C(=O)Nc2c(C)n[nH]c2C)c1 | -0.143%
Cc1cccnc1NC(=O)COc1ccc2oc3c(c2c1)CCCC3 | 9.39%
Cn1nc(C(=O)NCc2cccnc2)c2ccccc2c1=O | -1.75%
O=C(COC(=O)c1cccnc1Cl)NCC1CCCO1 (stereo not drawn) | 10.8%
O=C(COC(=O)CN1C(=O)c2ccccc2C1=O)Nc1ccccc1[N+](=O)[O-] | 1.48%
CC(=O)N1CCOc2ccc(S(=O)(=O)NCCc3ccccc3)cc21 | 2.09%
CSC(=S)N/N=C(\C)c1ccc(Br)cc1 | 33%
CCOc1cc(C(=O)Nc2cc(=O)n(C)c(=O)n2C)cc(OCC)c1OCC | -1.02%
COc1cccc(NC(=O)Cn2c(=O)n(-c3ccccc3)c(=O)c3sccc32)c1 | 7.24%
Cc1cc(C)n(-c2nc3nonc3nc2Nc2cccc(C)c2C)n1 | 3.08%
Cc1cc(Cl)ccc1OCCCC(=O)N1CCN(C(=O)c2ccco2)CC1 | -74.5%

Structure (SMILES) | hERG current change (%, negative = inhibition) at 10uM
C=C(C(=O)c1ccccc1)C(C)CC(=O)c1ccccc1 (stereo not drawn) | -0.276%
NC(=O)COC(=O)/C=C/c1cccc(Br)c1 | -12.7%
Clc1ccc(/C=C/c2nc3ccccc3[nH]2)cc1 | -15.7%
Cc1ccccc1OCC(=O)N/N=C/c1cn(C)c2ccccc12 | 0.304%
O=C1CCCN1C(=O)c1cncc(Br)c1 | -38.4%
OCCC1CN(Cc2ccccc2O)CCN1CCc1ccccc1 (stereo not drawn) | -35.6%
Cc1ccc(O)c(CCc2ccccc2)n1.Cl | 11.6%
COc1cc(OC)c(CN2CCC(CO)(CCOc3ccccc3)CC2)c(OC)c1 | -86.4%
CN(CC(=O)Nc1ccc(Cl)cc1)C(=O)Cc1c(F)cccc1Cl | 11.2%
COc1ccccc1NC(=O)N(Cc1ccco1)Cc1cc2ccc(C)c(C)c2[nH]c1=O | 8.85%
O=C(NCc1ccco1)C(=O)c1cn(CC(=O)N2CCCCCC2)c2ccccc12 | -7.86%
O=C(NC(=S)N(CCO)Cc1ccccc1)c1ccc(S(=O)(=O)N2CCCC2)cc1 | 18%
Cn1ncc([N+](=O)[O-])c1C(=O)Nc1ccc(C2CCCCC2)cc1 | 13.6%
CC(=O)NC(NC(=S)Nc1ccc(N=Nc2ccccc2)cc1)C(Cl)(Cl)Cl (stereo not drawn) | 19.6%
O=C(O)c1c(N2CCCCC2)ccc([N+](=O)[O-])c1N1CCCCC1 | 12.9%
Clc1ccc(-c2cnc3n2CCC3)cc1 | -23.1%
COc1ccc(C2(C(=O)Nc3nncs3)CCCC2)cc1 | -14.7%
CSc1ccc(CNCCN2CCOCC2)cc1.Cl | -8.98%
O=C(NCc1cnn(-c2ccc(F)cc2)c1)C1CCC(=O)N(C2CC2)C1 (stereo not drawn) | -13.1%

Structure (SMILES) | hERG current change (%, negative = inhibition) at 10uM
C/C(=N\Nc1ccccn1)c1ccc(OC(F)F)cc1 | -71.3%
COc1ccc(CCNC(=O)CSc2ccc(-c3ccccc3)nn2)cc1OC | 5.62%
O=C(NCCCN1CCCC1)c1cccc(N2CCCC2=O)c1 | 15.6%
CS(=O)(=O)N(Cc1ccccc1)c1ccccc1C(=O)Nc1ccccc1C(=O)NCc1ccco1 | -21.1%
COc1ccc(NC(C)=O)cc1CP(=O)(c1ccccc1)c1ccccc1 | 22.8%
O=C(CN(C(=O)c1csnn1)c1cccc2c1CCCC2)NCc1ccccc1 | -5.19%
N#C/C(=C\c1c[nH]c2ccccc12)c1nnc2n1CCCCC2 | -29.5%
COC(=O)C1C2C=CC3(CN(c4ccc(Cl)c(F)c4)C(=O)C13)O2 (stereo not drawn) | 4.99%
COc1ccccc1CNC(=O)CNC(=O)[C@@H]1Cc2ccccc2CN1 | 1.14%
c1cncc(CNc2ncnc3ccc(-c4ccoc4)cc23)c1 | -71.4%
O=C(OCCN1CCN(c2ncc(C(F)(F)F)cc2Cl)CC1)c1ccc(F)cc1 | 0.119%
CC1CC(C)CN(C(=O)CSc2nnc(-c3ccc(F)cc3)o2)C1 (stereo not drawn) | -16.9%
CCn1cnc2sc(C(=O)N3CCN(c4ccc(OC)cc4)CC3)c(C)c2c1=O | -12.6%
COc1ccc(Nc2nc3ccccc3n3nnnc23)cc1 | -7.93%
CC1CCCC(NC(=O)C2c3ccccc3C(=O)N2Cc2cccs2)C1C (stereo not drawn) | -34.7%
C=CCN1C(=O)C2C(C(=O)NCc3ccccc3)C3C=CC2(O3)C1C(=O)NC(C)(C)C (stereo not drawn) | 5.87%
O=C(c1cccc(C(F)(F)F)c1)C1CCCN(C(=O)C2CCOCC2)C1 (stereo not drawn) | -51.3%
COC(=O)C1CN(C(=O)C(C)Oc2ccccc2F)c2ccccc2O1 (stereo not drawn) | 15.6%
O=C(CN1C(=O)NC2(CCCC2)C1=O)Nc1cccc(-c2nnc3n2CCCCC3)c1 | 0.285%
